Out of some 310,000 compounds screened, about 14,000 (4.5%) showed an effect of 50% or more. The effect is printed as a negative number. Some of the results follow.
Molecular target: human ether-à-go-go-related gene (hERG) potassium channel (human, UniProt Q12809)
Test: primary screen, population patch clamp on CHO cells stably expressing hERG
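Further: peak tail current of the secondary pulse compared with the same well before compound.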

human ether-à-go-go-related gene (hERG) potassium channel, sequence (Q12809 whole entry, looked up): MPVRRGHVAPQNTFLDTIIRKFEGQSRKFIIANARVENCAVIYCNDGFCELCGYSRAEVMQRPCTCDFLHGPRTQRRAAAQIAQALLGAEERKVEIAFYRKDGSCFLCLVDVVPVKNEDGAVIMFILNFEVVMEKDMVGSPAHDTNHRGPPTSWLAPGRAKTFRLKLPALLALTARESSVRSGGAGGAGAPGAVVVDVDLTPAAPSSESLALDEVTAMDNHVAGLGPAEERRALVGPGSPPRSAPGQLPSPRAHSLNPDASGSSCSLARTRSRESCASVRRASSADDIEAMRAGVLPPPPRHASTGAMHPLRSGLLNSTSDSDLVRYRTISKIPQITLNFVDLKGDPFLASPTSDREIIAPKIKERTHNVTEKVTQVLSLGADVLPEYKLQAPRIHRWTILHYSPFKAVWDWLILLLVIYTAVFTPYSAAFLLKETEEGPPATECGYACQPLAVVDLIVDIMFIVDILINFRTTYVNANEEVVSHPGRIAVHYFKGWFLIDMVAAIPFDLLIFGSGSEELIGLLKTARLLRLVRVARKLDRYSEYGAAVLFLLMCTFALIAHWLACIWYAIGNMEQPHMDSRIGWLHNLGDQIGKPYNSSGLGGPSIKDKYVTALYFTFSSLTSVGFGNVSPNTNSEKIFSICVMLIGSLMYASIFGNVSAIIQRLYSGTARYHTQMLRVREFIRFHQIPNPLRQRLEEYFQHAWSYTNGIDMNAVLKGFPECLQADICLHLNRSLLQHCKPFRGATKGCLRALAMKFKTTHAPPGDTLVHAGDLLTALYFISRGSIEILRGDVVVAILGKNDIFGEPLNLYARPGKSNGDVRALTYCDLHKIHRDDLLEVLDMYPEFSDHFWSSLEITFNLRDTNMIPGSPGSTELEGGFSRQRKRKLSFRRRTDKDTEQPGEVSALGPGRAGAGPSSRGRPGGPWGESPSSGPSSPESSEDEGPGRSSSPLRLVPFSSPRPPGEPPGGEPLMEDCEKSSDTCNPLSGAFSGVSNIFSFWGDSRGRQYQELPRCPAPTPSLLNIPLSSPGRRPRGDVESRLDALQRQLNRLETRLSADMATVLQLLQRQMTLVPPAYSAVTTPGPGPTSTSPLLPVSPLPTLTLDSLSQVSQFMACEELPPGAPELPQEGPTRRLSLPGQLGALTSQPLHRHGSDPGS

Row | Structure (SMILES) | hERG current change (%, negative = inhibition) at 10uM [%]
1 | Nc1cccc(S(=O)(=O)c2cccc(N)c2)c1 | -5.81
2 | CCOC(=O)c1c(C)nc(C)c(C(=O)OCC)c1-c1cccc(N)c1 | 14.6
3 | CC(=O)c1cccc(OCc2cc(C(=O)N3C[C@H]4CC[C@H]3C4)no2)c1 | 4.62
4 | CN(C)C(CNS(=O)(=O)c1ccc2ccccc2c1)c1ccccc1.Cl (centres unmarked) | -8.93
5 | CC(=O)c1ccc(Oc2ncnc(N)c2[N+](=O)[O-])cc1 | 12.4
6 | O=C1NC(c2ccc(-c3ccccc3[N+](=O)[O-])o2)C(C(=O)c2ccc(Cl)cc2)C(O)(C(F)(F)F)N1 (centres unmarked) | 2.13
7 | COc1ccc(/C=C/C(=O)OCC(=O)N2CCCC2)c(OC)c1 | -3.65
8 | Cn1c2c(c(=O)n(C)c1=O)C1c3ccccc3OCC1C(C)(C)O2 (centres unmarked) | -4.89
9 | COc1ccc(OC(=O)COc2cc(C)ccc2C)cc1 | 10.1
10 | O=C(c1ccc(Cn2cc(Br)cn2)o1)N1N=C(C(F)F)CC1(O)C(F)F (centres unmarked) | -11
11 | N#C/C(=C\c1c(N2CCCCC2)nc2ccccn2c1=O)S(=O)(=O)c1ccccc1 | -40.7
12 | Nc1cc(C(F)(F)F)ccc1Nc1ccccc1 | 19
13 | COc1cccc(N=Cc2c(O)c3ccccc3oc2=O)c1 | 25
14 | COC(=O)c1ccccc1NC(=O)C1CCN(S(=O)(=O)c2cc(C)ccc2OC)CC1 | -17.8
15 | Cc1cc(Cl)ccc1OCCCC(=O)NN | 13.8
16 | COc1ccc(OC)c(Nc2nc(NCCC(C)C)nc(N)c2[N+](=O)[O-])c1 | 8.43
17 | CCN(CC)c1ccc(C=C2C(=O)NC(=S)NC2=O)cc1 | 23.4
18 | CC(=O)Nc1ccc(S(=O)(=O)Nc2ccc3c(c2)n(C)c(=O)n3C)c(C)c1 | 13
19 | COC(=O)C(Cc1cnc(Cl)s1)(C(=O)OC)c1ccccc1[N+](=O)[O-] | 5.44
20 | Clc1ccc(C2[C@H]3CN(Cc4cccnc4)[C@H](c4ccccc4)C34CC2(c2cccnc2)C4)cn1 (some centres unmarked) | -15.6
21 | O=C(Nc1ccc(Cl)cc1)N1CCN(c2ccccc2)CC1 | -5.5
22 | Cc1c(C(c2ccc(N(C)C)cc2)c2c(C)n(C)n(-c3ccccc3)c2=O)c(=O)n(-c2ccccc2)n1C | 14.4

Row | Structure (SMILES) | hERG current change (%, negative = inhibition) at 10uM [%]
23 | COc1ccc(N2CCN(C(=O)COC(=O)COc3cc(C)cc(C)c3)CC2)cc1 | -45.5
24 | Cc1sc2nc(CSc3ccccc3)nc(N3CCC(C(N)=O)CC3)c2c1C | -8.46
25 | Cc1cccc(NC(=O)CNC(=O)N2CC(=O)Nc3ccccc32)c1C | 32.9
26 | CCNC(=O)CC1C(=O)N(c2ccccc2)C(=O)N1CCOC (centres unmarked) | 21.4
27 | O=S(=O)(c1ccc2nc(N3CCN(c4ccc(F)cc4)CC3)ccc2c1)N1CCCCC1 | 0.314
28 | O=C(O)C1CCN(c2ccc([N+](=O)[O-])cc2[N+](=O)[O-])CC1 | 7.59
29 | O=C(NC(=S)Nc1nc2ccccc2s1)c1ccco1 | 24.1
30 | O=C1c2cccc3cccc(c23)C(=O)N1CCCCCc1n[nH]c(=S)o1 | -5.47
31 | Cc1cnc(NC(=O)c2cccc(S(=O)(=O)N3CCOCC3)c2)s1 | 8.52
32 | O=C(NC1CCCCC1)C(c1ccncc1)N(C(=O)Cc1cccs1)c1ccccc1 (centres unmarked) | 13.3
33 | CC(C)CC(=O)Nc1cc([N+](=O)[O-])ccc1Cl | -2.59
34 | Cc1ccc(S(=O)(=O)/N=C(\c2ccccc2)N(C)S(=O)(=O)c2ccccc2)cc1 | -12.4
35 | COc1cc(C=O)c(Br)cc1OCc1ccc(C)cc1 | 6.13
36 | Cc1cc(Cl)c(S(=O)(=O)Nc2ccccn2)cc1OCC(N)=O | -71.8
37 | CC(Oc1ccc(Br)cc1Br)C(=O)Nc1cccnc1 (centres unmarked) | 32.4
38 | Cc1cccc(-c2noc(CNC(=O)c3ccc4c(c3)OCO4)n2)c1 | -10.4
39 | O=C(C1CCN(Cc2cn[nH]c2-c2ccc(F)cc2F)CC1)N1CCOCC1 | 8.72
40 | CCCSCCCNC(=O)c1ccc(NC(=O)C2=CSCCO2)cc1 | -14.7
41 | S=C(NC1CC1)N1CCCc2ccccc21 | 9.39
42 | CC(C)OCCCNC(=O)C1CC(=O)N(CCc2ccc(F)cc2)C1 (centres unmarked) | 3.32
43 | O=C(CSc1nnc(CNC(=O)c2ccc(F)cc2)o1)NCCc1ccccc1 | 1.83
44 | Cc1cccc(NC(=S)NC2CC3CCCC(C2)N3Cc2ccco2)c1 (centres unmarked) | -21.7

Row | Structure (SMILES) | hERG current change (%, negative = inhibition) at 10uM [%]
45 | Fc1cc(F)c2nc(N3CCCC3)sc2c1 | 9.04
46 | COCCCN(C(=O)CSCC(=O)Nc1cccc(C)c1)c1c(N)n(Cc2ccccc2)c(=O)[nH]c1=O | 11.3
47 | O=C(NCc1ccccc1)c1cccc(COc2ccc3c(c2)CCC3)c1 | -28.5
48 | CC(C)C[C@H](NC(=O)C1CC(=O)N(c2ccc3c(c2)OCO3)C1)C(=O)NCc1ccco1 (some centres unmarked) | -5.38
49 | O=C(NCc1ccccn1)c1ccc(COc2ccc(Cl)cc2)o1 | -15.4
50 | COc1cc(/C=C(/C#N)c2nc3ccccc3[nH]2)ccc1OC(=O)c1ccco1 | -6.24
51 | O=C(COc1ccc(-c2nnco2)cc1)NCc1ccccc1Cl | -6.27
52 | COCCN(C(=O)CSCC(=O)Nc1cccc(C)c1)c1c(N)n(Cc2ccccc2)c(=O)[nH]c1=O | 2.27
53 | Cc1cc(Cl)ccc1OC(C)C(=O)N1CCCN(C(=O)C(C)Oc2ccc(Cl)cc2C)CC1 (centres unmarked) | -8.3
54 | CC(=O)OCc1cc2cc(C)ccc2[nH]c1=O | 18
55 | Cc1cccc(C)c1OCC(=O)NNC(=S)NC(=O)C1CC1 | 8.5
56 | C=CCN1C(=O)c2ccc(C(=O)NCCc3ccc(OC)c(OC)c3)cc2C1=O | 12.5
57 | CCC(=O)c1c[nH]c(C(=O)NCc2ccccc2OC)c1 | -6.15
58 | CCOC(=O)C1CCN(CCCSc2ccc(C)cc2)CC1.Cl | -71
59 | O=C(OCc1cc(=O)n2c(n1)sc1ccccc12)c1ccc(O)cc1O | 2.86
60 | O=C(CNC(=O)[C@@H]1Cc2ccccc2CN1)Nc1ccc2c(c1)OCCO2 | 12.2
61 | O=c1cc(CSc2nnc(-c3cccs3)n2Cc2ccccc2)nc2sc3ccccc3n12 | -53.5
62 | Cc1ccc(SCc2[nH]nc3c2C(c2ccco2)C(C#N)=C(N)O3)cc1 (centres unmarked) | -0.815
63 | Clc1ccc(Cn2ccnc2)cn1 | 3.44
64 | Cc1ccc2nc(C3CCN(S(=O)(=O)c4ccc5ccccc5c4)CC3)[nH]c2c1 | -3.46
65 | CSc1ccccc1NC(=O)Cn1c([N+](=O)[O-])cnc1C | 3.53
66 | CCN(CC)Cc1c(C(=O)N/N=C/c2cccnc2)nnn1-c1nonc1N | -10.9

Row | Structure (SMILES) | hERG current change (%, negative = inhibition) at 10uM [%]
67 | CC(C)Sc1nc2c(cnn2-c2ccccc2)c(=O)[nH]1 | 5.88
68 | CC1=CC=CC2=NC(=O)CC(C)(C(=O)N(CC(=O)NC(C)C)C3CCCC3)N12 (centres unmarked) | 26.3
69 | CC(=O)Nc1ccc(S(=O)(=O)Nc2ccc(Cl)cn2)cc1 | 15.4
70 | CCc1ccc(C2c3[nH]c4ccccc4c3CCN2C(=O)CN2CCN(CC)CC2)cc1 (centres unmarked) | 12.7
71 | O=C(O)c1cc(NCc2ccccc2C(F)(F)F)ccc1N1CCOCC1 | -26.5
72 | CCOC(=O)C1=C(C)N=c2s/c(=C/c3cccc(OCC(=O)O)c3)c(=O)n2C1c1ccc(F)cc1 (centres unmarked) | 7.33
73 | CCN(Cc1ccccc1)c1c(C(=O)O)cnc2c1cnn2C | 17.1
74 | CCOC(=O)c1cc(=O)c2c([N+](=O)[O-])ccc(OC)c2o1 | 5.54
75 | Cc1ccc(C(=O)N2CCN(S(=O)(=O)N3CCOCC3)CC2)cc1 | 1.55
76 | Oc1ccccc1N1CCN(c2ccc3ccccc3n2)CC1 | 12.8
77 | COc1ccc(C(=O)N(c2ccc(C)cc2)C2C=CS(=O)(=O)C2)cc1OC (centres unmarked) | 9.79
78 | Cn1c(=O)c2c(nc(CN3CCN(CCO)CC3)n2Cc2cccc3ccccc23)n(C)c1=O | -5.53
79 | Cc1ccc(C(=O)C2COC(=O)C2)cc1 (centres unmarked) | 9.04
80 | COc1ccc(CCNC(=O)C2CCN(c3nccc(C)n3)CC2)cc1 | 18.5
81 | CCOC(=O)Cc1csc(NC(=O)c2sc3nc4ccc(C)cc4cc3c2N)n1 | -0.972
82 | COc1ccc(CC(=O)OC(C)C(=O)Nc2ccc(Cl)cn2)cc1 (centres unmarked) | -12.4
83 | CCOc1ccc(C(C(=O)NCCC(C)C)N(CCO)C(=O)c2snc(C(N)=O)c2N)cc1 (centres unmarked) | -27
84 | COc1ccc(C(O)c2cc(OC)ccc2OP(=O)(N(C)C)N(C)C)cc1 (centres unmarked) | -2.93
85 | COc1ccc(N2CCN(C(=O)CSc3nnc(-c4cccnc4)n3-c3ccccc3)CC2)cc1 | -27.1
86 | CCCCCCc1cc2cc(S(=O)(=O)c3ccc(F)c(Cl)c3)c(=O)oc2cc1O | 0.372
